Source: the supplement of paper PMC4166925
± gives the standard deviation of the averaged measurements. In all, about 33,000 sequences were measured (“E-score (dimensionless, -0.5 to 0.5)”: median about -0.049, highest 2% from about 0.37 on). The list shows a part of the results.

Each sequence was assayed on T1, PmTbr T-box DNA-binding domain (GST fusion) (assay: PBM E-score of 8-mer (E-score (dimensionless, -0.5 to 0.5)); Tbr is Tbrain of the sea star Patiria miniata (Pm) or the sea urchin Strongylocentrotus purpuratus (Sp); higher = stronger binding preference; most listed sequences are background and not binding sites). Conditions: the construct has about 5 more residues each side.
T1 sequence: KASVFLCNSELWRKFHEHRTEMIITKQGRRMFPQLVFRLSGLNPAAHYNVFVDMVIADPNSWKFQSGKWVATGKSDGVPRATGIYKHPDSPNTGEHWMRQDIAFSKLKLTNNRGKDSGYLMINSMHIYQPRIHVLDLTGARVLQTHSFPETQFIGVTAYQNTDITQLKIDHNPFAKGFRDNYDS
Procedure, shortened: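 Expression of GST-fused Tbr T-box DNA-binding domains, each holding the full T-box plus roughly five flanking residues, was carried out in BL21 E. coli at 20 °C, with purification by glutathione affinity chromatography. Universal Agilent arrays made double-stranded by primer extension were incubated with the protein at 200 nM in PBS (pH 7.5), then scanned and quantified. All ungapped 8-mers were scored from probe intensities, and each received an enrichment E-score from the Universal PBM Analysis Suite, averaged over duplicate arrays.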

Row | Sequence | PBM E-score of 8-mer
1 | CTCTTGTA | -0.164 ± 0.038
2 | CCTCTCTA | -0.0135 ± 0.031
3 | GGGTACAC | -0.123 ± 0.036
4 | GCGCGTGA | 0.322 ± 0.0044
5 | AAAACCAC | -0.07498 ± 0.00031
6 | GACGCTTA | 0.0625 ± 0.044
7 | CTCCATAC | 0.12 ± 0.032
8 | ACACTAGG | 0.12 ± 0.0022
9 | GAAGCTCC | -0.342 ± 0.041
10 | CATACAGC | -0.223 ± 0.032
11 | CCCAAGCA | -0.201 ± 0.056
12 | GCTCCAGC | -0.226 ± 0.028
13 | GGGAGCAA | 0.0626 ± 0.0095
14 | AGTCGTAA | -0.149 ± 0.011
15 | GCCACGGC | -0.03 ± 0.011
16 | GCCGGAAA | -0.184 ± 0.032
17 | CTAAGGAG | -0.108 ± 0.029
18 | CCCGTATC | 0.0267 ± 0.042
19 | TAGTCACA | 0.233 ± 0.013
20 | GGTTGCAC | 0.164 ± 0.017
21 | GAGCCTCA | -0.138 ± 0.025
22 | GAATCTAA | -0.0385 ± 0.054

Row | Sequence | PBM E-score of 8-mer
23 | CATCCTAC | -0.0397 ± 0.018
24 | AGCCACTG | -0.118 ± 0.027
25 | AAAGGAAT | -0.242 ± 0.034
26 | AGCTGGCC | -0.191 ± 0.039
27 | GATAGGGC | -0.0385 ± 0.05
28 | GCGATTTA | 0.247 ± 0.0081
29 | CCCCCGAA | -0.3 ± 0.058
30 | CTGGTTGC | 0.106 ± 0.066
31 | CAGTAGAC | -0.0988 ± 0.05
32 | GAATTAAC | -0.0426 ± 0.067
33 | GGTGGTTA | -0.0741 ± 0.0065
34 | AACACAGA | -0.00947 ± 0.06
35 | CACGGCGC | 0.117 ± 0.035
36 | ACGGCTAT | -0.166 ± 0.019
37 | AAAATTGG | -0.0965 ± 0.029
38 | GGGCTCGA | -0.0648 ± 0.016
39 | CCGTTGTC | 0.259 ± 0.018
40 | GAGCACGC | -0.126 ± 0.013
41 | AAAGTCGA | 0.02 ± 0.017
42 | ACCGTCTA | -0.17 ± 0.073
43 | AACACGCT | 0.197 ± 0.011
44 | AATCATAC | -0.104 ± 0.035

Row | Sequence | PBM E-score of 8-mer
45 | CTGTGTCC | -0.12 ± 0.11
46 | CTTTTCTC | 0.036 ± 0.017
47 | ACTCTAGC | 0.00364 ± 0.085
48 | ACTCGGTA | -0.169 ± 0.11
49 | AAGATCAG | -0.223 ± 0.033
50 | TAGCCCTA | -0.307 ± 0.049
51 | CCTATTCG | -0.0561 ± 0.047
52 | CGCGCAGC | -0.0225 ± 0.046
53 | CTCTGATA | -0.00954 ± 0.042
54 | CAAGTCTA | -0.0335 ± 0.087
55 | TAGGGCGA | -0.0256 ± 0.13
56 | TAATGAGA | -0.198 ± 0.096
57 | CCTGGTCC | -0.173 ± 0.038
58 | CCCTCCGA | 0.0317 ± 0.12
59 | AGTGATTA | 0.0592 ± 0.032
60 | AATCTGAC | 0.00476 ± 0.046
61 | CATACTTA | -0.105 ± 0.011
62 | GGCTCTCA | 0.00055 ± 0.025
63 | CGACTATC | 0.0791 ± 0.034
64 | ATAGAAAT | -0.0543 ± 0.0047
65 | ATCCCCAA | -0.227 ± 0.063
66 | AGGGTGGA | 0.0918 ± 0.0011

Row | Sequence | PBM E-score of 8-mer
67 | ACTTACGA | 0.0556 ± 0.065
68 | ATAACCTC | -0.0514 ± 0.036
69 | CAGTGTAG | -0.0223 ± 0.072
70 | ATAGTATG | -0.157 ± 0.0018
71 | CACCCGCC | 0.278 ± 0.012
72 | CCCTGGCA | 0.102 ± 0.063
73 | TAGGAGGA | -0.246 ± 0.067
74 | ACCTCAAA | 0.108 ± 0.0028
75 | CGGGAAGC | -0.0801 ± 0.017
76 | GGAACTAC | -0.00194 ± 0.017
77 | GAAAAACA | 0.0169 ± 0.083
78 | GCTTTGCA | 0.0382 ± 0.04
79 | CTGGCGCA | 0.019 ± 0.0017
80 | CTTACGGC | -0.138 ± 0.043
81 | AAACCGGA | -0.0578 ± 0.0015
82 | AACCTTTA | -0.0895 ± 0.057
83 | CCGTCCTC | -0.267 ± 0.0041
84 | AACACCCC | 0.433 ± 0.0072
85 | CTTTTAGA | -0.255 ± 0.07
86 | CCAAGTAA | -0.191 ± 0.054
87 | GTGCCCAC | -0.203 ± 0.019
88 | GACACAGC | 0.1102 ± 0.00023

Row | Sequence | PBM E-score of 8-mer
89 | CCCCCGCC | 0.0393 ± 0.042
90 | GACGAGTA | -0.0965 ± 0.023
91 | AGAGTTAT | -0.0216 ± 0.013
92 | AACGCTAG | 0.125 ± 0.02
93 | CCATCATC | -0.0566 ± 0.031
94 | ACGTCTCT | -0.0986 ± 0.016
95 | CGATGTCA | 0.0984 ± 0.03
96 | AGAACGAG | -0.0902 ± 0.0033
97 | TCCAGGCA | -0.4441 ± 0.0044
98 | ATATCAAC | 0.0198 ± 0.04
99 | ATATATAT | -0.0347 ± 0.059
100 | GCTCACAA | 0.132 ± 0.037
101 | CGTCCAAC | -0.0771 ± 0.053
102 | CTAGGCTC | -0.116 ± 0.076
103 | ACCGCGTG | 0.301 ± 0.021
104 | AAGACACA | 0.0664 ± 0.031
105 | GTCCCGAA | -0.123 ± 0.0091
106 | ACCGGGTA | -0.209 ± 0.1
107 | AAATATCT | -0.0432 ± 0.073
108 | CAGCATGA | -0.17 ± 0.008
109 | GAAGCGCA | 0.0102 ± 0.0031
